Test results reported in patent US10905782B2, “Compositions for enhancing transport of molecules into cells” (priority 2003, dated 2021).

What was measured:
[1] = system: region surrounding the AUG start codon of the human c-myc gene; test: Cell-free translation assay (rabbit reticulocyte lysate), c-myc:fLUC; settings: cell-free RRL translation, FIG. 28
Description: This placed the c-myc coding sequences in frame with the amino acid coding sequences of the fLUC gene (c-myc:fLUC). A PMO targeting this region of c-myc, designated AVI-4126, is listed as SEQ ID NO: 5.
A plasmid construct with a 30 base pair region surrounding the ATG start codon of the human c-myc gene was placed in frame with the amino acid coding sequences of the fLUC gene (c-myc:fLUC). A PMO targeting this region of c-myc, AVI-4126, is listed as SEQ ID NO: 5.

[2] = system: sequence of murine hepatitis virus (MHV) that surrounds the start codon of the lab gene; test: Cell-free translation assay (rabbit reticulocyte lysate), MHV sequence fused to fLUC; type: biochemical; settings: all the above described cases, including the MHV target
Description: A similar construct using a portion of the murine hepatitis virus (MHV) genome was constructed in the same vector (pCNlucr) by inserting nucleotides 188 to 230 of MHV (Genbank accession number AF029248) into the NheI and SalI sites of pCNlucr. This fragment of MHV contains nucleotides −22 to +21 relative to the “A” of the AUG of the MHV Orf 1a gene and generates a fusion protein with the luciferase reporter gene. The PMO that targets this region is SEQ ID NO: 9.

Substance | antisense effect of the conjugated c-myc PMO compared to unconjugated PMO [1] | enhancement of antisense effectiveness compared to unconjugated PMO [2] [fold]
RAhxRRAhxRRAhxRRAhxR (R[Ahx]RR[Ahx]RR[Ahx]RR[Ahx]R) [(RAhxR)4] | enhanced antisense effect | –
RRRRRRRRRFF [R9F2, transport peptide; results under this label are for its PMO conjugates] | – | ≤ 500

Square brackets hold non-standard residues; d marks the D form. Ends that are not written are not given here. Ahx = NCCCCCC(=O)O
